In all, about 310,000 compounds went through this assay and about 14,000 (4.5%) showed an effect of 50% or more. The effect is printed as a negative number. The list shows a part of the results.
Each compound was assayed against human ether-à-go-go-related gene (hERG) potassium channel (human, UniProt Q12809) (assay: primary screen, population patch clamp on CHO cells stably expressing hERG).
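Also: peak tail current of the secondary pulse compared with the same well before compound.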

Chain of human ether-à-go-go-related gene (hERG) potassium channel (Q12809 whole entry, looked up): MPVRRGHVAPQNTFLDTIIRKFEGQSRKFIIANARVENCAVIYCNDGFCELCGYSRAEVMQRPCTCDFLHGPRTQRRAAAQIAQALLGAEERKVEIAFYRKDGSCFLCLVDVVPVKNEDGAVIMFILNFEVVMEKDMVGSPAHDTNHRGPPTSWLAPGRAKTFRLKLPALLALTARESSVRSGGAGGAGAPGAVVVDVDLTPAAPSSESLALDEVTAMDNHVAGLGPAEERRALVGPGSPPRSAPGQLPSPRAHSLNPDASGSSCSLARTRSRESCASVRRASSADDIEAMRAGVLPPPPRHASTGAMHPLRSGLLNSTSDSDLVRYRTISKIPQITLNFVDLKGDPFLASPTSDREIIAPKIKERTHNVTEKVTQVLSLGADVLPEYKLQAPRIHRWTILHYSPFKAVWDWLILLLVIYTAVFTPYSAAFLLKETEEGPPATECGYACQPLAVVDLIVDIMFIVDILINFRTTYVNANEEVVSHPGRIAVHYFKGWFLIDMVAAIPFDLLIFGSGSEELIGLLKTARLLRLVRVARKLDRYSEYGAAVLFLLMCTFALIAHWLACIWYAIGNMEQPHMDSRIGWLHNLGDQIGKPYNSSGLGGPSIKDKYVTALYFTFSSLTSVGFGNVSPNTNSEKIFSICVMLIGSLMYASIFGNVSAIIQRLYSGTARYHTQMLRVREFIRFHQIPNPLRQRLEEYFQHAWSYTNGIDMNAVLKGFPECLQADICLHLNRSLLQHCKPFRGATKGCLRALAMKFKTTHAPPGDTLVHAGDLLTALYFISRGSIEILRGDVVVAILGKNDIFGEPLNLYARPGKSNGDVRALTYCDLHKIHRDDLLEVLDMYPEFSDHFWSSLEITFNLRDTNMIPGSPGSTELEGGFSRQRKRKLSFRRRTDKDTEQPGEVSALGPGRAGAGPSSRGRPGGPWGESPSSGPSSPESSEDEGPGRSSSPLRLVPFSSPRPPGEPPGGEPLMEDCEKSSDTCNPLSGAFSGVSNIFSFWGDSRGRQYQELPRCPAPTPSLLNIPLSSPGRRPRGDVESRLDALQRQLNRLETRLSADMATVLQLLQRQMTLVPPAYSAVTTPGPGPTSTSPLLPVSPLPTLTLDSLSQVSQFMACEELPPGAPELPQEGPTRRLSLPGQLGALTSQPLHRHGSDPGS

First: Cc1nc(COc2ccc(C(=O)NCc3ccccc3CN3CCCCC3)cc2)cs1
Second: CCOc1ccc(N(CC(=O)N2CCCC2)S(=O)(=O)c2ccc(F)cc2)cc1
The “hERG current change (%, negative = inhibition) at 10uM” value of the first is lower: -52.5% for the first, -12.2% for the second.

Compared with `O=C(Cc1ccccc1)N/N=C/c1cc(Br)cs1`, `O=C(Cn1cc(C(F)(F)F)cc(Cl)c1=O)NCc1ccccc1` is higher in “hERG current change (%, negative = inhibition) at 10uM” value: 4.39% for the first, 27.1% for the second.

Compared with `O=C1CCC(C(=O)Nc2ccc(OC(F)F)cc2)N1` (stereo not drawn), `O=C(Nc1ccc(Oc2ccccc2)cc1)C1CCCO1` (stereo not drawn) is lower in “hERG current change (%, negative = inhibition) at 10uM” value: 3.6% for the first, -4.83% for the second.

Going from `CCCn1c(NCc2ccc3c(c2)OCO3)nc2ccccc21` to `CCC(=O)Nc1ccc(NC(=O)c2ccc3c(c2)OCO3)cc1`, the “hERG current change (%, negative = inhibition) at 10uM” value falls from 12.6% to 0.362%.

First: CC1CCN(C(=O)c2ccc(NS(=O)(=O)c3ccccc3)cc2)CC1
Second: Cc1ccccc1C(=O)NC(=S)Nc1ccc(S(=O)(=O)N2CCN(C)CC2)cc1
The “hERG current change (%, negative = inhibition) at 10uM” value of the first is lower: -0.415% for the first, 7.75% for the second.

Going from `COCCn1c(SCC(=O)Nc2cccnc2Cl)nc2ccccc2c1=O` to `CCOC(=O)CSc1nc2c(c(=O)[nH]c(=O)n2C)n1Cc1ccccc1`, the “hERG current change (%, negative = inhibition) at 10uM” value falls from 4.53% to -32.9%.

First: c1ccc2c(NC3=NCCS3)cccc2c1
Second: CCN1C(=O)/C(=C\c2nc3ccccc3c(=O)n2CC)c2ccccc21
The “hERG current change (%, negative = inhibition) at 10uM” value of the first is higher: 10.8% for the first, 7.75% for the second.

Compared with `CCOc1ccc(Cl)cc1CNc1nnnn1CC`, `CCOc1c(CNCCCSc2nc(C)cc(C)n2)cccc1OC.Cl` is lower in “hERG current change (%, negative = inhibition) at 10uM” value: 9.54% for the first, -11.1% for the second.

Compared with `CCOC(=O)c1c(-c2cccc(N)c2)cn2ccccc12`, `CCOC(=O)C1=C(C)N(c2ccccc2)C(=O)NC1c1cccc([N+](=O)[O-])c1` (stereo not drawn) is lower in “hERG current change (%, negative = inhibition) at 10uM” value: 19.3% for the first, -37% for the second.

Compared with `CCc1cccc(NC(=O)CCCn2nc(C)c3c(C)n(-c4ccccc4)nc3c2=O)c1`, `CCc1ccc(CNC(=O)Cn2nc(-c3ccccc3)ccc2=O)cc1` is lower in “hERG current change (%, negative = inhibition) at 10uM” value: -10.1% for the first, -43.9% for the second.

Compared with `COc1ccc(-c2coc3c(CN4CCCCC4)c(O)c(CN4CCCCC4)c(O)c3c2=O)cc1`, `COc1ccc(N2CC(C(=O)Nc3ccc(S(=O)(=O)N4CCCC4)cc3)CC2=O)cc1` (stereo not drawn) is higher in “hERG current change (%, negative = inhibition) at 10uM” value: -79.2% for the first, 8.44% for the second.

Compared with `CC12CN3CC(C)(CN(C1)C3c1c[nH]c3ccccc13)C2=O` (stereo not drawn), `CC1(C)Nc2ccccc2C(=O)N1c1ccc(Br)cc1` is higher in “hERG current change (%, negative = inhibition) at 10uM” value: -9.4% for the first, 8.99% for the second.

Going from `COc1ccc(CNc2nc(S(=O)(=O)c3ccccc3)c(Cl)s2)cc1OC` to `COc1cc2[nH]c(=O)n3nc(-c4ccccc4)nc3c2cc1OC`, the “hERG current change (%, negative = inhibition) at 10uM” value falls from 1.39% to -11.7%.

First: COc1cccc2c1OCC(C(=O)O)C2 (stereo not drawn)
Second: COc1ccccc1-c1noc(CCCC(=O)NC2CCCC2)n1
The “hERG current change (%, negative = inhibition) at 10uM” value of the first is higher: 37% for the first, 9.49% for the second.

First: COCCCN1CC(=O)N2C(c3cccc(C)c3)c3[nH]c4ccccc4c3C[C@H]2C1=O (stereo partly drawn)
Second: COc1ccccc1N1CCN(CC(=O)c2c(C)[nH]c3cc(C)ccc23)CC1
The “hERG current change (%, negative = inhibition) at 10uM” value of the first is lower: -40.8% for the first, -31% for the second.

Going from `CN(C)CC(C)(C)CNCc1cc(=O)oc2ccc3ccccc3c12` to `CCCCOc1ccc2c(C)cc(=O)oc2c1OCCCC`, the “hERG current change (%, negative = inhibition) at 10uM” value rises from -1.16% to 3.03%.

First: CN(C)S(=O)(=O)c1ccc(NC(=S)NC(=O)c2ccc(Br)o2)cc1
Second: CCOC(=O)Nc1ccc(S(=O)(=O)Nc2cc(C)nc(C)n2)cc1
The “hERG current change (%, negative = inhibition) at 10uM” value of the first is higher: 20.1% for the first, 3.68% for the second.

Compared with `Cc1nc(-c2ccccc2)cc(=O)[nH]1`, `Cc1ccc(/C=C2\C(=O)ON=C2c2ccccc2)o1` is higher in “hERG current change (%, negative = inhibition) at 10uM” value: 6.48% for the first, 29.1% for the second.

First: NS(=O)(=O)c1ccc(CCNc2ncnc3sccc23)cc1
Second: COc1ccc(CCNc2ncnc3nc[nH]c23)cc1OC
The “hERG current change (%, negative = inhibition) at 10uM” value of the first is higher: 5.9% for the first, 4.12% for the second.

First: CCN(CC)CCCNC(=O)Cn1nc([N+](=O)[O-])c(Cl)c1C
Second: Cc1ccc([N+](=O)[O-])c(C(=O)Nc2cccnc2Cl)c1
The “hERG current change (%, negative = inhibition) at 10uM” value of the first is higher: 24.2% for the first, 9.75% for the second.

First: CCOc1ccc(NC(=O)c2nnn(CC(=O)Nc3ccccc3OCC)c2N)cc1
Second: COc1ccccc1NC(=O)Nc1ccc2c(c1)nc(C)n2C
The “hERG current change (%, negative = inhibition) at 10uM” value of the first is lower: -7.22% for the first, -0.807% for the second.

First: Cc1ccc(-c2nc(Nc3cccc(C)c3)sc2CC(=O)O)cc1
Second: Cc1cccc(Oc2ccc(NC(=O)C3CC=CCC3C(=O)O)cc2)c1 (stereo not drawn)
The “hERG current change (%, negative = inhibition) at 10uM” value of the first is lower: 5.09% for the first, 6.95% for the second.

First: CC1CCN(C(=O)c2ccc3c(Cl)c4c(nc3c2)CCCC4)CC1
Second: COc1cc(OC)c(NC2=NCCCCC2)cc1Cl
The “hERG current change (%, negative = inhibition) at 10uM” value of the first is lower: -23.7% for the first, -0.664% for the second.

Going from `CCc1ccc(NC(=S)N2CCN(c3cccc(C(F)(F)F)c3)CC2)cc1` to `COc1ccc(CCC(=O)N(C)CC(=O)Nc2ccc(Cl)c(C(F)(F)F)c2)cc1`, the “hERG current change (%, negative = inhibition) at 10uM” value rises from 3.59% to 22.2%.

Compared with `C=C1[C@H]2C[C@H]3[C@H]4N5C[C@]6(C)CCC[C@]47[C@H]([C@H]2O)[C@]3(C[C@]5(O)[C@H]67)[C@@H]1O`, `CN1CCN(C(=O)C2=C[C@H](C(C)(C)C)C[C@H](OCCCCO)O2)CC1` is lower in “hERG current change (%, negative = inhibition) at 10uM” value: 5.56% for the first, -1.76% for the second.

Compared with `Cc1noc(C)c1C(=O)N(CC(C)C)c1nc2ccccc2s1`, `Cc1ccccc1Cn1cc(NC(=O)c2noc3c2CC(C(C)(C)C)CC3)cn1` (stereo not drawn) is lower in “hERG current change (%, negative = inhibition) at 10uM” value: 4.69% for the first, 0.814% for the second.

Compared with `COC(=O)CSc1nnc(-c2cccnc2)o1`, `COc1cc(/C=N/n2cnnc2)ccc1OC(=O)c1cccnc1` is lower in “hERG current change (%, negative = inhibition) at 10uM” value: 12.8% for the first, 0.698% for the second.

Going from `CCOc1ccc(NC(=O)NC(C)CC)cc1` (stereo not drawn) to `CCN=C1SC(C(=O)Nc2ccc(OCC)cc2)CC(=O)N1CC` (stereo not drawn), the “hERG current change (%, negative = inhibition) at 10uM” value rises from 2.89% to 10.6%.

Compared with `Cc1cc(C)nc(/N=C2\NC(=O)CC3C(=O)NCCN23)n1` (stereo not drawn), `Cc1ccc(C)c(NC(=O)COc2coc(CN3CCc4ccccc4C3)cc2=O)c1` is lower in “hERG current change (%, negative = inhibition) at 10uM” value: 10.6% for the first, -26.5% for the second.

First: CC(C)N1CCN(C2CSCCSC2)CC1CCO (stereo not drawn)
Second: CCOC(=O)N1CCN(C(=O)C(CC(C)C)NS(=O)(=O)c2ccc3c(c2)oc(=O)n3C)CC1 (stereo not drawn)
The “hERG current change (%, negative = inhibition) at 10uM” value of the first is higher: -10.4% for the first, -12.4% for the second.

Going from `S=c1[nH]c2cc(Cl)c3cccnc3c2o1` to `CCOc1ccc2[nH]c3c(N4CCC5(CC4)OCCO5)ncnc3c2c1`, the “hERG current change (%, negative = inhibition) at 10uM” value falls from 21% to 5.84%.

Compared with `O=C1NC(=O)N(Cc2ccc(F)cc2)C(=O)/C1=C\c1ccoc1`, `O=C1CC(N(Cc2ccc3c(c2)OCO3)C(=O)Nc2ccc(F)cc2)C(=O)N1c1ccccc1` (stereo not drawn) is lower in “hERG current change (%, negative = inhibition) at 10uM” value: 8.81% for the first, 2.28% for the second.

First: CCOc1ccc(C(=O)C[n+]2cccc3cc(C)ccc32)cc1.[Br-]
Second: COc1ccc(CCNC(=O)c2ccc(COc3ccccc3OC)o2)cc1
The “hERG current change (%, negative = inhibition) at 10uM” value of the first is lower: -47.9% for the first, -8.72% for the second.

Compared with `ClCC1CN(Cc2ccccc2Cl)CCO1` (stereo not drawn), `Cc1cc(=O)n(-c2ccccc2Cl)[nH]1` is lower in “hERG current change (%, negative = inhibition) at 10uM” value: 33.3% for the first, 9.54% for the second.

First: Nc1c(C(=O)Nc2nccs2)sc2nc(-c3cccs3)cc(C(F)(F)F)c12
Second: CCc1cc2c(SCC(=O)c3ccc(Cl)s3)ncnc2s1
The “hERG current change (%, negative = inhibition) at 10uM” value of the first is higher: 22.2% for the first, -5.89% for the second.

Compared with `O=c1[nH]c2ccccc2cc1CN(Cc1cccnc1)S(=O)(=O)c1ccc([N+](=O)[O-])cc1`, `Cc1ccc(S(=O)(=O)Nc2ccccc2C(=O)Nc2ccc(S(=O)(=O)Nc3nccc(C)n3)cc2)cc1` is higher in “hERG current change (%, negative = inhibition) at 10uM” value: -23.9% for the first, 7.59% for the second.

First: CCOC(=O)CSc1nc(N)nc(C)c1Br
Second: CCOC(=O)c1oc2ccccc2c1NC(=O)CCl
The “hERG current change (%, negative = inhibition) at 10uM” value of the first is lower: -9.9% for the first, 8.84% for the second.

Compared with `CCOC(=O)N1CC=C2C(C#N)=C(N)C(C#N)(C#N)[C@H](c3ccsc3)[C@H]2C1`, `CCCOC(=S)NC(=O)c1sc2ccccc2c1Cl` is higher in “hERG current change (%, negative = inhibition) at 10uM” value: 7.66% for the first, 12.3% for the second.

Compared with `NC(=O)[C@H]1CC2(CC(c3cccc(NC(=O)COc4ccc(Cl)cc4)c3)=NO2)CN1C(=O)c1ccc(Cl)cc1` (stereo partly drawn), `O=C(COc1ccc2ccccc2c1)Nc1ccc(Cc2ccncc2)cc1` is higher in “hERG current change (%, negative = inhibition) at 10uM” value: -9.96% for the first, 4.87% for the second.

Going from `Cc1ccc(NC(=O)C2COc3ccccc3O2)cc1S(=O)(=O)N1CCOCC1` (stereo not drawn) to `CN(C)S(=O)(=O)n1cc(/C=C(\NC(=O)c2ccccc2)C(=O)N2CCOCC2)c2ccccc21`, the “hERG current change (%, negative = inhibition) at 10uM” value rises from -34.2% to 21.2%.

Compared with `C#CCOc1ccc(Cl)cc1/C=N/O`, `C=CCOc1c(CNC2CCCC2)cc(Cl)cc1OC.Cl` is lower in “hERG current change (%, negative = inhibition) at 10uM” value: -3.19% for the first, -23.6% for the second.

Compared with `CC(=O)Nc1ccc(NC(=O)C2CC(=O)N(Cc3ccccc3)C2)cc1` (stereo not drawn), `COC(=O)c1ccc(NC(=O)CN2C(=O)CNC2=O)cc1` is lower in “hERG current change (%, negative = inhibition) at 10uM” value: 17% for the first, 14% for the second.

Compared with `O=c1c(Cl)c(NCc2ccccc2)cnn1C12CC3CC(CC(C3)C1)C2`, `CC(Sc1nnc2c(n1)C1CCC2(C)C1(C)C)C(=O)Nc1ccccc1` (stereo not drawn) is higher in “hERG current change (%, negative = inhibition) at 10uM” value: -24% for the first, -15% for the second.

First: C=CCn1c(O)c(C(C)=NC(C)c2ccccc2)c(=O)[nH]c1=O (stereo not drawn)
Second: CCN(CC)c1ncnnc1-c1ccccc1
The “hERG current change (%, negative = inhibition) at 10uM” value of the first is lower: -3.54% for the first, 15.9% for the second.

Compared with `Cc1cc(C)nc(Sc2nc(Nc3ccccc3)nc(Sc3nc(C)cc(C)n3)n2)n1`, `CCN(CC)c1ccc(/C=N/NC(=S)NCc2ccc(OC)cc2)cc1` is higher in “hERG current change (%, negative = inhibition) at 10uM” value: -4.94% for the first, 20.3% for the second.

— PMC4336329 (PLoS ONE, 2015)
